Experimental data from US20250248397A1, “CHITOSAN ENCAPSULATION OF ABSOLUTE (ESSENTIAL) ROSEMARY, PEPPERMINT, AND COTTONSEED OILS” (GroPro Corporation, priority 2024, published 2025).

Assays:
Black Sigatoka = assay: Field trials in bananas against black Sigatoka; assay type: in vivo, Mycosphaerella fijiensis; details: applied as tank mixes with tea tree oil
Method: Tea tree oil was used in disclosed experiments and trials as an 53mulsifiable concentrated formulation. For field trials in bananas, tea tree oil was applied similarly to conventional synthetic fungicides, with mineral oil, surfactants, and/or just water. The following fungicides, registered for use against black sigatoka in bananas, were tested for comparison: azoxystrobin (Bankit 25 SC), trifloxystrobin (Flint, Tega 50 WG), difenoconazole (Score, Sico 25 EC), mancozeb (43 SC Duwest 80 WP), flutriafol (Impact, 125 SC) and tridemorph (Calixin 86 OL).

[1] = tested on: (Ae. aegypti), Culex species mosquitoes, Anopheles species mosquitoes; assay: Mosquito and midge adult activity; assay type: in vivo; details: used at 500 to 8,000 ppm
[2] = tested on: root-knot nematodes (Meloidogyne spp.); assay: Nematocidal activity on hatched root-knot nematodes in Petri dish; assay type: in vivo; details: geraniol used at 500 to 4,000 ppm
Method: In some embodiments, the nematodes used in the experiments were mainly Meloidogyne spp. The below disclosed experiment results are related to the evaluation of nematocidal activity of naturally derived material.
The tomato roots infected with root-knot nematodes were washed with running water and were then cut to a size of about 1 cm, after which 50 g of the cut roots were placed in a 500 ml round-bottom flask containing 200 ml of 0.5% sodium hypochloride (NaOCl), stopped with a rubber stopper, and shaken vigorously for 3 min to sterilize the roots and at the same time burst the egg bag. Thereafter, the solution was passed through a sieve in which 200 mesh was superimposed on 500 mesh, and washed with distilled water, so the eggs of the root-knot nematodes from which the NaOCl solution was removed were recovered.
Next, the eggs of the root-knot nematodes thus recovered were surface-sterilized with 0.5% NaOCl for 10 min, washed thoroughly with sterile distilled water, placed in a phosphate buffer (1%) containing sterilized normal saline, and hatched in an incubator at 25° C.
Thereafter, each mixed solution was diluted to 2000 ppm, 2 to 3 ml thereof was poured into a Petri dish, after which 15 hatched root-knot nematodes were placed in the Petri dish, and nematocidal activity was measured and the results thereof are shown in Table 1 below. […]

[3] = cited from earlier work

| Compound | control of Black Sigatoka (Black Sigatoka) | mosquito and midge control, plant phytotoxicity, water toxicology [1] | nematocidal control and plant phytotoxicity [2] | solubility in water [3] |
| --- | --- | --- | --- | --- |
| CON=C(C(=O)OC)c1ccccc1CON=C(C)c1cccc(C(F)(F)F)c1 [trifloxystrobin] | effectively controlled |  |  |  |
| CC(C)=CCC/C(C)=C/CO [Geraniol, 3,7-dimethyl-2,6-octadien-1-ol] |  | superior mosquito and midge control was demonstrated without plant phytotoxicity or water toxicology | superior nematocidal control was demonstrated without plant phytotoxicity | insoluble in water |
